The source of these data is article PMC12040169 (PLOS Biology, 2025).

Each structure is given as a SMILES string. Some of the results follow.

This assay concerns T1, C. trachomatis L2/434/Bu expressing GFP (CTL2-GFP).
T1 construct: L2/434/Bu GFP intracellular growth in HeLa cells
Also on record: species or system HeLa; C. trachomatis total inclusion area by high-content imaging, normalised to DMSO. The settings on record: total inclusion area; 28.5 h, 10 µM; inhibitor. In short, it runs like this:
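Following bulk GFP and resorufin fluorescence reads, infected cells were fixed, Hoechst-stained and imaged on a high-content platform. Inclusion total area and number per well served as growth proxies; nuclei counts indicated host viability. MICs were derived as for the fluorescence assay.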
Take `Cc1ccc(NC(=O)Cn2cnc3c(cnn3-c3ccc(C)cc3)c2=O)cc1` [CBK287534]: the “% of control remaining” value came to 112.034.

For the compound `COc1ccnc(N2CCC(Oc3cccnc3N(C)C)C2)n1` (stereo not shown) [CBK304699], the “% of control remaining” value is recorded as 53.6088.

Consider `Cn1nc(C2CCCC2)cc1[C@H]1CN2CC[C@H]1C[C@@H]2CNS(C)(=O)=O` [CBK288742], for which the “% of control remaining” value came out at 88.5641.

In the case of `COc1ccc([C@@]23CC[C@@H](NS(=O)(=O)c4ccc5ccccc5c4)C[C@@H]2N(C)CC3)cc1OC` [CBK056848T], the “% of control remaining” value turned out to be 89.3241.

Turning to `Cc1cc(C(=O)NCCC(=O)O)c2ccccc2n1` [CBK286573], the “% of control remaining” value is given as 76.8152.

Consider `Cc1nc(C)c(C(=O)N2C3CCC2c2cc(Cl)cnc2C3)s1` (stereo not shown) [CBK284953], for which the “% of control remaining” value stood at 89.0123.

On to `COc1ccccc1NC(=O)N1C[C@@H]2C[C@H](C1)c1c(-c3ccccc3F)ccc(=O)n1C2` [CBK289192], for which the “% of control remaining” value came to 99.4223.

Take `O=C1CNC(=O)C2(C/C=C/C[C@H]3COCC[C@@H]3N1)CCN(C(=O)c1cccc(Cl)c1)CC2` [CBK292066]: the “% of control remaining” value was found to be 105.248.

Turning to `Cc1cccn2cc(CCNC(=O)CN(C)C3CCSC3)nc12` (stereo not shown) [CBK304027], the “% of control remaining” value is recorded as 95.4641.

`CC(C)NC(=O)NC[C@H]1C[C@@H]2CCN1C[C@@H]2c1cc(C2CCCCC2)nn1C` [CBK289107]: the “% of control remaining” value is reported as 89.0111.

Consider `Cn1c2c(c3ccccc31)C(=O)NCC2` [CBK003517], for which the “% of control remaining” value amounted to 99.9961.

Consider `CCCn1ccnc1SCC(=O)Nc1ccc(N(C)C)cc1` [CBK304996], for which the “% of control remaining” value is 71.0494.

For the compound `Cc1cccc(N(CC(=O)Nc2cccnc2)S(=O)(=O)c2ccc(Cl)cc2)c1` [CBK268676], the “% of control remaining” value was 102.159.

For `COc1cc(C2C(C(=O)c3cccs3)=C(O)C(=O)N2Cc2cccnc2)ccc1O` (stereo not shown) [CBK264605], the “% of control remaining” value amounted to 91.2989.

In the case of `Cc1sc2ncn(CC(=O)Nc3cccnc3)c(=O)c2c1C` [CBK306057], the “% of control remaining” value was 58.2524.

As to `COc1ccc(S(=O)(=O)NCCCN2CCOCC2)c(Cl)c1Cl` [CBK269792], the “% of control remaining” value came out at 80.3792.

Consider `CSCCC(NC(=O)c1ccccc1NC(=O)c1ccc(C)cc1)C(=O)O` (stereo not shown) [CBK296067], for which the “% of control remaining” value stood at 85.1723.

Consider `O=C(O)c1ccc2c(c1)C1C=CCC1C(c1cccc([N+](=O)[O-])c1)N2` (stereo not shown) [CBK287008], for which the “% of control remaining” value stood at 101.204.

`N#CC(C(=O)CN1CCCC1)c1ccccc1` (stereo not shown) [CBK269333]: the “% of control remaining” value stood at 114.607.

As for `O=C(Nc1ncnc2c1ccn2C1CC(O)C(CO)O1)c1ccccc1` (stereo not shown) [CBK201289], the “% of control remaining” value is 105.43.

`N#CCCN(C(=O)NCCOc1ccccc1)C1CCCCC1` [CBK156374]: the “% of control remaining” value was determined as 105.921.

In the case of `O=C(O)CNC(=O)c1ccc(S(=O)(=O)N2CCCC2)cc1` [CBK267434], the “% of control remaining” value turned out to be 99.0585.

For the compound `CC(=O)Nc1cccc(-c2nc(-c3ccc(C#N)cc3)cnc2N)c1` [CBK113659], the “% of control remaining” value was 82.488.

On to `COc1nc2ccccc2nc1CCC(=O)O` [CBK269356], for which the “% of control remaining” value worked out at 98.8075.

For `O=C(CNc1ccc2ccccc2c1)N/N=C/c1cc2c(cc1[N+](=O)[O-])OCO2` [CBK261126], the “% of control remaining” value was determined as 38.0361.

Take `CCc1nc2ccc(NC(=O)c3csc(C(C)=O)c3)cc2[nH]1` [CBK282538]: the “% of control remaining” value is reported as 98.0049.

As to `Cc1cc(C)n(CC(=O)Nc2nc(CN3CCC(C)CC3)cs2)n1` [CBK305592], the “% of control remaining” value is recorded as 42.7483.

As to `OCc1ccccc1-c1cncc(Nc2cccc(Cl)c2)n1` [CBK065400], the “% of control remaining” value is given as 82.9692.

For the compound `O=S1(=O)CCN(Cc2ccc3c(c2)OCO3)CC1` [CBK074780], the “% of control remaining” value turned out to be 100.974.

For the compound `CC(C)(C)O/N=C/c1cccnc1` [CBK015761C], the “% of control remaining” value was determined as 70.8926.

For `O=C(c1ccc(-n2ccnc2)c(-n2cccc2)c1)N1CCSCC1` [CBK285364], the “% of control remaining” value came to 115.032.

In the case of `O=C(CCCC1CCNCC1)Nc1nnc(C2CC2)s1` [CBK169224], the “% of control remaining” value was determined as 83.939.

For `COc1cc([N+](=O)[O-])ccc1NC(=S)NNS(=O)(=O)c1cc(Cl)c(Cl)cc1Cl` [CBK266863], the “% of control remaining” value turned out to be 114.407.

With `N#Cc1c2c(c(Nc3ccc(C4CCCCC4)cc3)n3c1nc1ccccc13)CCC2` [CBK263122], the “% of control remaining” value was 96.6443.

On to `CCN1CCCC1CNC(=O)c1cc(Br)cnc1N(C)S(C)(=O)=O` (stereo not shown) [CBK076520], for which the “% of control remaining” value worked out at 98.2812.

As for `O=C(CC1(O)C(=O)N(Cc2ccccc2Cl)c2ccccc21)c1cc2ccccc2oc1=O` (stereo not shown) [CBK265255], the “% of control remaining” value amounted to 98.7154.

With `O=C(Nc1ccc(S(=O)(=O)N2CCCCC2)cc1)c1ccc(NS(=O)(=O)c2ccccc2)cc1` [CBK268348], the “% of control remaining” value is recorded as 98.7835.

Turning to `O=C(NC1CCCC1)c1cc(=O)n(Cc2ccc(Cl)cc2)c2ccccc12` [CBK294464], the “% of control remaining” value worked out at 133.233.

With `C=CCN(CC=C)CCOc1c(C)cc(C)cc1Br` [CBK266070G], the “% of control remaining” value worked out at 92.9394.

As for `O=c1[nH]c2ccc(Cl)cc2c(-c2ccccc2)c1N1CCN(Cc2ccc3c(c2)OCO3)CC1` [CBK265776], the “% of control remaining” value was 78.6829.

As for `CC(=O)Nc1cc(C(=O)NCc2ccc(F)cc2)ccc1Sc1ccc(Cl)cc1` [CBK294468], the “% of control remaining” value came to 97.2848.

Regarding `CN(C)Cc1cc(-c2ccccc2F)nn1CCNC(=O)C1CCC1` [CBK283471], the “% of control remaining” value is given as 90.8009.

As for `NC(=O)C(=O)c1c(-c2ccccc2)cc2ccccn12` [CBK288466], the “% of control remaining” value was 34.8844.

As to `Cc1cc(=O)n(CC(=O)N2CCC3(CCCN(C(C)C)C3=O)C2)nc1C` (stereo not shown) [CBK307482], the “% of control remaining” value is given as 99.7269.

On to `Cc1ccc(-c2nc(C3CCCN(C(=O)NC4CCCCC4)C3)n3ccccc23)cc1` (stereo not shown) [CBK047241], for which the “% of control remaining” value came out at 66.6753.

Regarding `COC(=O)c1c(NC(=S)Nc2ccc(Br)cn2)sc2c1CCC(C)C2` (stereo not shown) [CBK266962], the “% of control remaining” value is recorded as 116.597.

Regarding `CC(C)n1c(NCc2nc3ccccc3n2C)nc2ccccc21` [CBK265571], the “% of control remaining” value is recorded as 94.9699.

With `Clc1ccc(CN2CCN(c3nccnc3OCc3cccnc3)CC2)cc1Cl` [CBK083128T], the “% of control remaining” value worked out at 92.9615.

Consider `Cc1ccc(C(=O)Nc2cccc(-c3nc4ncccc4o3)c2C)cc1[N+](=O)[O-]` [CBK262793], for which the “% of control remaining” value is 112.263.

For the compound `CS(=O)(=O)Nc1ccc(C(=O)N2CC(=O)Nc3ccccc32)cc1` [CBK269827], the “% of control remaining” value is 76.7586.

Consider `Cc1c(-c2cccc(Cl)c2)nc2ccccc2c1C(=O)NCCc1ccc(S(N)(=O)=O)cc1` [CBK267784], for which the “% of control remaining” value is 98.4251.

Regarding `Cc1nn(C)c(Cl)c1S(=O)(=O)NCc1ccc(C(F)(F)F)c(F)c1` [CBK062111], the “% of control remaining” value is 103.261.

Turning to `CC(=O)c1ccc(-c2ccc(C(=O)NCCc3ccc(S(N)(=O)=O)cc3)c(N(C)C(C)=O)n2)s1` [CBK076621], the “% of control remaining” value is listed as 109.281.

Regarding `CCCC(=O)c1ccc(S(=O)(=O)N2CCCN(Cc3ccc(C#N)cc3)CC2)cc1` [CBK062895], the “% of control remaining” value was found to be 42.7634.

Regarding `O=C(C1CCCC1)N1CCCc2cc(C(O)CN3CCCC3)ccc21` (stereo not shown) [CBK282145], the “% of control remaining” value turned out to be 77.6787.

For `CC(C)(C)c1ccc(-c2nc(N)cc3ccccc23)cc1` [CBK085720], the “% of control remaining” value is 69.29.

As to `COc1cccc(/C=C2/SC(=S)NC2=O)c1OCCCOc1ccccc1C` [CBK264442], the “% of control remaining” value is reported as 108.7.

In the case of `CN(C)CCOCCS(=O)(=O)c1ccc(N2CCC(c3ccc(Cl)cc3)=N2)cc1` [CBK018115], the “% of control remaining” value is given as 16.9445.

Turning to `Cc1cc(C)nc(Nc2ncc(O)n2-c2ccccc2C)n1` [CBK263024], the “% of control remaining” value worked out at 101.427.

Turning to `Cc1ccc(NC(=O)c2ccc(-c3cccc([N+](=O)[O-])c3)o2)cc1-c1nc2ncccc2o1` [CBK262947], the “% of control remaining” value came to 64.7269.

Turning to `O=C(O)CCc1ccc(S(=O)(=O)N2CCOCC2)cc1` [CBK287224], the “% of control remaining” value was determined as 79.773.

As for `O=C(C1CCCC1)N1C[C@@H]2CCCCN(CC3CC3)[C@@H]2C1` [CBK285493], the “% of control remaining” value was determined as 99.7126.

As to `O=C(Cn1cc(C(=S)N2CCOCC2)c2ccccc21)Nc1ccc2c(c1)OCO2` [CBK266703], the “% of control remaining” value is given as 107.961.

Regarding `Cc1cc(Cl)c(OCCN2CCCCCC2)c(Br)c1` [CBK266049G], the “% of control remaining” value is listed as 79.9824.

In the case of `CN1CCC(CNC(=O)C2(c3ccccc3F)CC2)(N(C)C)CC1` [CBK282604], the “% of control remaining” value worked out at 116.147.

Turning to `O=C(c1nccs1)C1CCN(C(=O)Cc2ccccc2F)CC1` [CBK284161], the “% of control remaining” value stood at 87.3976.

On to `CC(C)(C)NC(=O)c1ccc(-n2ccnc2)c(-n2cccc2)c1` [CBK284811], for which the “% of control remaining” value is recorded as 111.292.

With `CCN(CC)C(=O)CN1CCC(c2ccc(F)cc2)CC1` [CBK285475], the “% of control remaining” value stood at 98.1076.

Turning to `Cc1noc(C)c1S(=O)(=O)Nc1cccc(C(=O)N2CCN(C)CC2)c1` [CBK038972], the “% of control remaining” value came out at 90.0699.

Turning to `COCC(=O)N1CCC(Cc2ccc(-c3cccc(C)c3)cc2)(C(=O)NC(C)C)CC1` [CBK285759], the “% of control remaining” value was 106.049.

Take `O=C1CCCCC1SCn1nnc2ccccc21` (stereo not shown) [CBK011412]: the “% of control remaining” value was 60.6004.

Regarding `Cc1ccc(N2C(=O)CSC23C(=O)Nc2ccc(Br)cc23)cc1` (stereo not shown) [CBK093453], the “% of control remaining” value is given as 83.8017.

Turning to `C/C(=N\O)c1ccc(S(N)(=O)=O)cc1` [CBK007871], the “% of control remaining” value was 107.392.

On to `CN(C)C(C)(C)COc1ncccc1OCCO` [CBK042184], for which the “% of control remaining” value turned out to be 98.9409.

For `CC(C)(C)OC(=O)N1CCCN(Cc2nnc(-c3ccco3)o2)CC1` [CBK305271], the “% of control remaining” value was found to be 73.7955.

Take `COc1ccc(N2CCN(C(=O)CCC(F)(F)F)CC2)cc1` [CBK091419]: the “% of control remaining” value is on record as 87.3335.

Regarding `c1ccc2cc(-c3cc(Nc4ccc5[nH]ccc5c4)ncn3)ccc2c1` [CBK090853], the “% of control remaining” value is on record as 89.2019.

Turning to `COc1ccc(C)cc1S(=O)(=O)N(CC(=O)O)c1ccc(Cl)c(Cl)c1` [CBK269095], the “% of control remaining” value stood at 96.5042.

Regarding `CCCNc1cncc(-c2ccc(OCC)cc2)n1` [CBK065845], the “% of control remaining” value is 73.278.
